Values belong to the binder of their own block, whether it stands above or below them.
Target: IGF-1 receptor (UniProt P08069 31-1367)
Experiment: cell-based or functional assay

UniProt P08069, sequence (P08069 31-1367): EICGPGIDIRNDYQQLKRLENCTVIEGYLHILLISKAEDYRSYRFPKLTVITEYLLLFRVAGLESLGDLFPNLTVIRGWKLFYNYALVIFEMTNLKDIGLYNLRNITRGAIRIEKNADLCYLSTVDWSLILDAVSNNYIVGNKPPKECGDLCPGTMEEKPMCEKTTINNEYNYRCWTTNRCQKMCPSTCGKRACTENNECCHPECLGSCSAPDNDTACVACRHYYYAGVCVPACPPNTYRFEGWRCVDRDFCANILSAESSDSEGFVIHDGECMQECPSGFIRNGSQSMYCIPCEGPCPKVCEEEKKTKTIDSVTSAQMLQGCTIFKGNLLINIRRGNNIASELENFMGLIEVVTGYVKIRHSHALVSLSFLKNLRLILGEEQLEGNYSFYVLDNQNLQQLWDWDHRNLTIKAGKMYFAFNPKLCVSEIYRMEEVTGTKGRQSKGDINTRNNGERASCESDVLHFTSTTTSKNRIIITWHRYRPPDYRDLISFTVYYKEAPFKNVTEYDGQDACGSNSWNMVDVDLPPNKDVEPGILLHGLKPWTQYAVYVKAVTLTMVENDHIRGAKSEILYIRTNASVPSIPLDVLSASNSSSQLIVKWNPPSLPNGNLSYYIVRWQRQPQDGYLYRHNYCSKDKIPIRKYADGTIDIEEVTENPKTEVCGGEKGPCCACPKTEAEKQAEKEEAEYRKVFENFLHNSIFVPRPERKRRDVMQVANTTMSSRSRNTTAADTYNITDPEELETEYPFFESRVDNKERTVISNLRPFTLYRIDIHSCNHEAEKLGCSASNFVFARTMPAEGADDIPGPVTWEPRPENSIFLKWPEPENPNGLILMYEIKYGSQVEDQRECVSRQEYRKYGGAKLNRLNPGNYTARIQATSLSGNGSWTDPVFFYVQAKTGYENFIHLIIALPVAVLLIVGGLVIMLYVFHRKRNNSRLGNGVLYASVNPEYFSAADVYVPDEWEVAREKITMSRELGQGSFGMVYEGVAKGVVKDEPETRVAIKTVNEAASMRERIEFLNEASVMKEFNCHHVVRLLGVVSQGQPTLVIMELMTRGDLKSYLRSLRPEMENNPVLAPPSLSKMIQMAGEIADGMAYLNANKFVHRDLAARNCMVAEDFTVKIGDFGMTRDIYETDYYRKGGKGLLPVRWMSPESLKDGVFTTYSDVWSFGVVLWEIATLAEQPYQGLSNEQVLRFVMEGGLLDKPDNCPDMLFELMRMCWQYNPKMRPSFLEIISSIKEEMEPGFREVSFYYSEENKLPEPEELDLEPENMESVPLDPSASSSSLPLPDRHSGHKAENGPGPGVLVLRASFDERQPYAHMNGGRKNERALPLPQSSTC

B1: SGF 683 (Fc fusion)
chain: MFPAMPLSSLFVNGPRTLCGAELVDALQFVCGDRGFYFNKPTGYGSSSRAPQTGIVDECCFRSCDLRRLEMYCAPLKPAGSGGSGGGSGGGSGGGSGGGSGGGSGGGSGGGSGGGSGGG[sequence of human IgG1 Fc with changes not given]SGGSGGGSGGGSGGGSGGGSGGGSGGGSGGGSGGGSGGGAQVLRGTVTDFPGFDERADAETLRKAMKGLGTDEESILTLLTSRSNAQRQEISAAFKTLFGRDLLDDLKSELTGKFEKLIVALMKPSRLYDAYELKHALKGAGTNEKVLTEIIASRTPEELRAIKQVYEEEYGSSLEDDVVGDTSGYYQRMLVVLLQANRDPDAGIDEAQVEQDAQALFQAGELKWGTDEEKFITIFGTRSVSHLRKVFDKYMTISGFQIEETIDRETSGNLEQLLLAVVKSIRSIPAYLAETLYYAMKGAGTDDHTLIRVMVSRSEIDLFNIRKEFRKNFATSLYSMIKGDTSGDYKKALLLLSGEDDGSGGSGGGSGGGSGGGSGGGSGGGSGGGSGGGSGGGSGSGAQVLRGTVTDFPGFDERADAETLRKAMKGLGTDEESILTLLTSRSNAQRQEISAAFKTLFGRDLLDDLKSELTGKFEKLIVALMKPSRLYDAYELKHALKGAGTNEKVLTEIIASRTPEELRAIKQVYEEEYGSSLEDDVVGDTSGYYQRMLVVLLQANRDPDAGIDEAQVEQDAQALFQAGELKWGTDEEKFITIFGTRSVSHLRKVFDKYMTISGFQIEETIDRETSGNLEQLLLAVVKSIRSIPAYLAETLYYAMKGAGTDDHTLIRVMVSRSEIDLFNIRKEFRKNFATSLYSMIKGDTSGDYKKALLLLSGEDD
- potency reduction (pAKT EC50fusion/EC50wt IGF1), iPSC-derived cardiomyocytes: ≥ 6 fold

B6: SGF 649 (Fc fusion)
chain: MFPAMPLSSLFVN[sequence of about 80 residues not given]GSGGSGGGSGGGSGGGSGGGSGGGSGGGSGGGSGGGSGGG[sequence of human IgG1 Fc with changes not given]SGGSGGGSGGGSGGGSGGGSGGGSGGGSGGGSGGGSGGGAQVLRGTVTDFPGFDERADAETLRKAMKGLGTDEESILTLLTSRSNAQRQEISAAFKTLFGRDLLDDLKSELTGKFEKLIVALMKPSRLYDAYELKHALKGAGTNEKVLTEIIASRTPEELRAIKQVYEEEYGSSLEDDVVGDTSGYYQRMLVVLLQANRDPDAGIDEAQVEQDAQALFQAGELKWGTDEEKFITIFGTRSVSHLRKVFDKYMTISGFQIEETIDRETSGNLEQLLLAVVKSIRSIPAYLAETLYYAMKGAGTDDHTLIRVMVSRSEIDLFNIRKEFRKNFATSLYSMIKGDTSGDYKKALLLLSGEDD
- potency reduction (pAKT EC50fusion/EC50wt IGF1), iPSC-derived cardiomyocytes: ≤ 2 fold

Further lines, results first:

- potency reduction (pAKT EC50fusion/EC50wt IGF1), iPSC-derived cardiomyocytes: ≤ 2 fold
B2: SGF 688 (Fc fusion)
chain: MFPAMPLSSLFVNGPRTLCGAELVDALQFVCGDRGFYFNKPTGYGSSSRAPQTGIVDECCFRSCDLRRLEMYCAPLKPAGSGGSGGGSGGGSGGGSGGGSGGGSGGGSGGGSGGGSGGG[sequence of human IgG1 Fc with changes not given]

- potency reduction (pAKT EC50fusion/EC50wt IGF1), iPSC-derived cardiomyocytes: ≥ 6 fold
B3: SGF 704 (other)
chain: MFPAMPLSSLFVN[sequence of about 80 residues not given]GSGGSGGGSGGSGGGDAHKSEVAHRFKDLGEENFKALVLIAFAQYLQQSPFEDHVKLVNEVTEFAKTCVADESAENCDKSLHTLFGDKLCTVATLRETYGEMADCCAKQEPERNECFLQHKDDNPNLPRLVRPEVDVMCTAFHDNEETFLKKYLYEIARRHPYFYAPELLFFAKRYKAAFTECCQAADKAACLLPKLDELR[sequence of about 200 residues not given]NLIKQNCELFEQLGEYKFQNALLVRYTKKVPQVSTPTLVEVSRNLGKVGSKCCKHPEAKRMPCAEDYLSVVLNQLCVLHEKTPVSDRVTKCCTESLVNRRPCFSALEVDETYVPKEFQAGTFTFHADICTLSEKERQIKKQTALVELVKHKPKATKEQLKAAMDDFAAFVEKCCKADDKETCFAEEGKKLVAASQAALGL

- potency reduction (pAKT EC50fusion/EC50wt IGF1), iPSC-derived cardiomyocytes: ≥ 6 fold
B4: SGF 731 (other)
chain: MFPAMPLSSLFVNGPRTLCGAELVDALQFVCGDRGFLFNKPTGAGSSSRRAPQTGIVDECCFRSCDLRRLEMYCAPLKPAKSAGSGGSGGGSGGSGGGDAHKSEVAHRFKDLGEENFKALVLIAFAQYLQQSPFEDHVKLVNEVTEFAKTCVADESAENCDKSLHTLFGDKLCTVATLRETYGEMADCCAKQEPERNECFLQHKDDNPNLPRLVRPEVDVMCTAFHDNEETFLKKYLYEIARRHPYFYAPELLFFAKRYKAAFTECCQAADKAACLLPKLDELR[sequence of about 200 residues not given]NLIKQNCELFEQLGEYKFQNALLVRYTKKVPQVSTPTLVEVSRNLGKVGSKCCKHPEAKRMPCAEDYLSVVLNQLCVLHEKTPVSDRVTKCCTESLVNRRPCFSALEVDETYVPKEFQAGTFTFHADICTLSEKERQIKKQTALVELVKHKPKATKEQLKAAMDDFAAFVEKCCKADDKETCFAEEGKKLVAASQAALGLGSGGSGGGSGGSGGGAQVLRGTVTDFPGFDERADAETLRKAMKGLGTDEESILTLLTSRSNAQRQEISAAFKTLFGADLLDDLASELTGKFEKLIVALMKPSRLYDAYELKHALAGAGTNEKVLTEIIASRTPEELRAIKQVYEEEYGSSLAGDVVGDTSGYYQRMLVVLLQAARDPDAGIDEAQVEQDAQALFQAGELKWGTDEEKFITIFGTRSVSHLRKVFDKYMTISGFQIEETIDRETSGNLEQLLLAVVKSIRSIPAYLAETLYYAMKGAGTDDHTLIRVMVSRSEIDLFNIRKEFRKNFATSLYSMIKGDTSGDYKKALLLLCGEDD

- potency reduction (pAKT EC50fusion/EC50wt IGF1), iPSC-derived cardiomyocytes: ≥ 6 fold
B5: SGF 730 (other)
chain: MFPAMPLSSLFVNGPRTLCGAELVDALQFVCGDRGFYFNKPTGYGSSSRAPQTGIVDECCFRSCDLRRLEMYCAPLKPAGSGGSGGGSGGSGGGDAHKSEVAHRFKDLGEENFKALVLIAFAQYLQQSPFEDHVKLVNEVTEFAKTCVADESAENCDKSLHTLFGDKLCTVATLRETYGEMADCCAKQEPERNECFLQHKDDNPNLPRLVRPEVDVMCTAFHDNEETFLKKYLYEIARRHPYFYAPELLFFAKRYKAAFTECCQAADKAACLLPKLDELR[sequence of about 200 residues not given]NLIKQNCELFEQLGEYKFQNALLVRYTKKVPQVSTPTLVEVSRNLGKVGSKCCKHPEAKRMPCAEDYLSVVLNQLCVLHEKTPVSDRVTKCCTESLVNRRPCFSALEVDETYVPKEFQAGTFTFHADICTLSEKERQIKKQTALVELVKHKPKATKEQLKAAMDDFAAFVEKCCKADDKETCFAEEGKKLVAASQAALGLGSGGSGGGSGGSGGGAQVLRGTVTDFPGFDERADAETLRKAMKGLGTDEESILTLLTSRSNAQRQEISAAFKTLFGADLLDDLASELTGKFEKLIVALMKPSRLYDAYELKHALAGAGTNEKVLTEIIASRTPEELRAIKQVYEEEYGSSLAGDVVGDTSGYYQRMLVVLLQAARDPDAGIDEAQVEQDAQALFQAGELKWGTDEEKFITIFGTRSVSHLRKVFDKYMTISGFQIEETIDRETSGNLEQLLLAVVKSIRSIPAYLAETLYYAMKGAGTDDHTLIRVMVSRSEIDLFNIRKEFRKNFATSLYSMIKGDTSGDYKKALLLLCGEDD
